Some of the results follow. The data describe in vitro nicking of single-stranded DNA by Rep domains (1 h at 37 °C, 3 µM enzyme); the outer parts of the 90-letter strands are left off. Numbers give uncut DNA relative to the enzyme-free pool, as log2; uncut sequences lie near 0, cut ones below; no hit call is given. Counts are relative to all reads, so uncut sequences can rise above 0 when many others are cut.
Experiments:
Experiment in all cases: uncleaved DNA left, log2 of reads against the no-enzyme library (log2 ratio); higher = less cleavage (more negative = more Rep cleavage of the k-mer); sequences stand for … in CTCGTCCG…ACCGGAGA
[1] = system: T1, Rep nickase domain of Muscovy duck circovirus
T1 sequence (residues 1-111, tag not shown): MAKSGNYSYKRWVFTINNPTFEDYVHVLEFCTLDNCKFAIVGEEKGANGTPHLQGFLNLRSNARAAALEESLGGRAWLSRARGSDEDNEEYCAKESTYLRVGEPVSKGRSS
Protocol: (§1)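 A pool of 90-nt single-stranded DNAs with seven random bases just before the constant AC of the nick site (name = the seven bases) was cut by 3 µM recombinant His6-SUMO-tagged Rep nickase domain (300 nM DNA, 50 mM HEPES pH 8.0, 50 mM NaCl, 1 mM MnCl2, 1 h, 37 °C, three replicates). Uncut DNA was amplified and sequenced.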

[2] = system: T2, Rep nickase domain of banana bunchy top virus
T2 sequence (residues 1-94, tag not shown): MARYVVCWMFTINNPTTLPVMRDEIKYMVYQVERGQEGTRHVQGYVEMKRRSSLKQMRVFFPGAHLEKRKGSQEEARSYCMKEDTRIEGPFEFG
Protocol: as §1

[3] = system: T3, Rep nickase domain of cabbage leaf curl virus
T3 sequence (residues 1-116, tag not shown): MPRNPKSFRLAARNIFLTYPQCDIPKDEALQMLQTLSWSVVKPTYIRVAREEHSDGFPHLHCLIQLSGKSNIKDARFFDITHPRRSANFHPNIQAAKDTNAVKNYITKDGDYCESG
Protocol: as §1

[4] = system: T4, Rep nickase domain of chickpea chlorotic dwarf virus
T4 sequence (residues 1-124, tag not shown): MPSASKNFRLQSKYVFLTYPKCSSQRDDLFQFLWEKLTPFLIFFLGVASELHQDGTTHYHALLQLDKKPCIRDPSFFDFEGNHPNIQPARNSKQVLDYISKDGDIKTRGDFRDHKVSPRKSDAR
Protocol: as §1

[5] = system: T5, Rep nickase domain of faba bean necrotic yellows virus
T5 sequence (residues 1-98, tag not shown): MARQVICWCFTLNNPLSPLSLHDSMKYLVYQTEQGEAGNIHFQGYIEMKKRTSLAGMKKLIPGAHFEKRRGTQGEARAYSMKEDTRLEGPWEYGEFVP
Protocol: as §1

[6] = system: T6, Rep nickase domain of maize striate mosaic virus
T6 sequence (residues 1-117, tag not shown): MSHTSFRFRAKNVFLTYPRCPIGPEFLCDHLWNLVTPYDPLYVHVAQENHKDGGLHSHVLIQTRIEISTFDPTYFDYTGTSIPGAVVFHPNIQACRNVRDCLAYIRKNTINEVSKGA
Protocol: as §1

[7] = system: T7, Rep nickase domain of porcine circovirus 2
T7 sequence (residues 2-116, tag not shown): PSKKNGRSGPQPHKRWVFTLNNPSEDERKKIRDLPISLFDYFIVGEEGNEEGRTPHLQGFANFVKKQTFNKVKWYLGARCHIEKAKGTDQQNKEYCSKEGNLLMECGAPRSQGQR
Protocol: as §1

[8] = system: T8, Rep nickase domain of tomato golden mosaic virus
T8 sequence (residues 1-124, tag not shown): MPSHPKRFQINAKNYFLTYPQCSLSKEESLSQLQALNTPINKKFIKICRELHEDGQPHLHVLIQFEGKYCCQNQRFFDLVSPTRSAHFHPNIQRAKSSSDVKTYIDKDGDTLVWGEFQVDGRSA
Protocol: as §1

[9] = system: T9, Rep nickase domain of tomato yellow leaf curl virus
T9 sequence (residues 1-136, tag not shown): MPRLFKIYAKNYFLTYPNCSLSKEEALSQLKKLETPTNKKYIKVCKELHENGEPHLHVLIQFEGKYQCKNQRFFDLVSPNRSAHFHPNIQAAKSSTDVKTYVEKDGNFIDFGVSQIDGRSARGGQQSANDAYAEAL
Protocol: as §1

[10] = system: T10, Rep nickase domain of wheat dwarf virus
T10 sequence (residues 1-137, tag not shown): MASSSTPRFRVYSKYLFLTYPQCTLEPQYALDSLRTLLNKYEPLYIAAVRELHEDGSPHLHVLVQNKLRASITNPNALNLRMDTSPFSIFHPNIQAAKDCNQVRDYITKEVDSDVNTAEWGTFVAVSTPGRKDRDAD
Protocol: as §1

## TAATCGA
[1]
  uncleaved DNA left (log2): 0.174
[2]
  uncleaved DNA left (log2): 0.128
[3]
  uncleaved DNA left (log2): -2.83
[4]
  uncleaved DNA left (log2): -2.3
[5]
  uncleaved DNA left (log2): 0.143
[6]
  uncleaved DNA left (log2): -1.82
[7]
  uncleaved DNA left (log2): 0.0904
[8]
  uncleaved DNA left (log2): -0.369
[9]
  uncleaved DNA left (log2): 0.0378
[10]
  uncleaved DNA left (log2): -0.951

## GACTGGG
[1]
  uncleaved DNA left (log2): 0.19
[2]
  uncleaved DNA left (log2): 0.0676
[3]
  uncleaved DNA left (log2): -0.144
[4]
  uncleaved DNA left (log2): -0.0887
[5]
  uncleaved DNA left (log2): 0.209
[6]
  uncleaved DNA left (log2): -0.535
[7]
  uncleaved DNA left (log2): 0.281
[8]
  uncleaved DNA left (log2): 0.135
[9]
  uncleaved DNA left (log2): 0.184
[10]
  uncleaved DNA left (log2): 0.17

## TGCTGCC
[1]
  uncleaved DNA left (log2): 0.0289
[2]
  uncleaved DNA left (log2): -0.0707
[3]
  uncleaved DNA left (log2): -0.0605
[4]
  uncleaved DNA left (log2): 0.13
[5]
  uncleaved DNA left (log2): -0.0882
[6]
  uncleaved DNA left (log2): -0.195
[7]
  uncleaved DNA left (log2): -0.00811
[8]
  uncleaved DNA left (log2): -0.0936
[9]
  uncleaved DNA left (log2): -0.15
[10]
  uncleaved DNA left (log2): -0.0886

## CGCGTTC
[1]
  uncleaved DNA left (log2): 0.0424
[2]
  uncleaved DNA left (log2): -0.0347
[3]
  uncleaved DNA left (log2): -0.0333
[4]
  uncleaved DNA left (log2): -0.431
[5]
  uncleaved DNA left (log2): 0.0467
[6]
  uncleaved DNA left (log2): -0.622
[7]
  uncleaved DNA left (log2): -0.0226
[8]
  uncleaved DNA left (log2): -0.1
[9]
  uncleaved DNA left (log2): 0.00112
[10]
  uncleaved DNA left (log2): -0.0324

## ATCAGGG
[1]
  uncleaved DNA left (log2): -0.0204
[2]
  uncleaved DNA left (log2): 0.0427
[3]
  uncleaved DNA left (log2): -0.371
[4]
  uncleaved DNA left (log2): -0.248
[5]
  uncleaved DNA left (log2): 0.0486
[6]
  uncleaved DNA left (log2): -0.922
[7]
  uncleaved DNA left (log2): 0.158
[8]
  uncleaved DNA left (log2): 0.0133
[9]
  uncleaved DNA left (log2): -0.0722
[10]
  uncleaved DNA left (log2): -0.115

## CCGAGAG
[1]
  uncleaved DNA left (log2): 0.165
[2]
  uncleaved DNA left (log2): 0.269
[3]
  uncleaved DNA left (log2): -0.0683
[4]
  uncleaved DNA left (log2): 0.0278
[5]
  uncleaved DNA left (log2): 0.228
[6]
  uncleaved DNA left (log2): -0.453
[7]
  uncleaved DNA left (log2): 0.267
[8]
  uncleaved DNA left (log2): 0.189
[9]
  uncleaved DNA left (log2): 0.156
[10]
  uncleaved DNA left (log2): 0.0906

## GACTGGT
[1]
  uncleaved DNA left (log2): -0.252
[2]
  uncleaved DNA left (log2): -0.107
[3]
  uncleaved DNA left (log2): 0.0327
[4]
  uncleaved DNA left (log2): 0.482
[5]
  uncleaved DNA left (log2): -0.0055
[6]
  uncleaved DNA left (log2): 1.03
[7]
  uncleaved DNA left (log2): -2.53
[8]
  uncleaved DNA left (log2): 0.0991
[9]
  uncleaved DNA left (log2): 0.0611
[10]
  uncleaved DNA left (log2): 0.0295

## CAGCTCG
[1]
  uncleaved DNA left (log2): -0.109
[2]
  uncleaved DNA left (log2): -0.0502
[3]
  uncleaved DNA left (log2): -0.733
[4]
  uncleaved DNA left (log2): -0.517
[5]
  uncleaved DNA left (log2): 0.04
[6]
  uncleaved DNA left (log2): -0.779
[7]
  uncleaved DNA left (log2): 0.0992
[8]
  uncleaved DNA left (log2): -0.0713
[9]
  uncleaved DNA left (log2): -0.0624
[10]
  uncleaved DNA left (log2): 0.0419

## CCAGAGT
[1]
  uncleaved DNA left (log2): 0.0668
[2]
  uncleaved DNA left (log2): -0.129
[3]
  uncleaved DNA left (log2): -0.287
[4]
  uncleaved DNA left (log2): -0.724
[5]
  uncleaved DNA left (log2): -0.0431
[6]
  uncleaved DNA left (log2): -0.851
[7]
  uncleaved DNA left (log2): 0.0261
[8]
  uncleaved DNA left (log2): 0.0536
[9]
  uncleaved DNA left (log2): -0.0279
[10]
  uncleaved DNA left (log2): -0.0697

## TTACAAA
[1]
  uncleaved DNA left (log2): 0.0907
[2]
  uncleaved DNA left (log2): 0.153
[3]
  uncleaved DNA left (log2): 0.17
[4]
  uncleaved DNA left (log2): -0.997
[5]
  uncleaved DNA left (log2): 0.0356
[6]
  uncleaved DNA left (log2): -0.0681
[7]
  uncleaved DNA left (log2): 0.033
[8]
  uncleaved DNA left (log2): 0.0951
[9]
  uncleaved DNA left (log2): 0.126
[10]
  uncleaved DNA left (log2): 0.0482

## CGTGGAT
[1]
  uncleaved DNA left (log2): -0.0376
[2]
  uncleaved DNA left (log2): 0.0777
[3]
  uncleaved DNA left (log2): 0.202
[4]
  uncleaved DNA left (log2): 1.5
[5]
  uncleaved DNA left (log2): 0.0535
[6]
  uncleaved DNA left (log2): 1.79
[7]
  uncleaved DNA left (log2): 0.0617
[8]
  uncleaved DNA left (log2): -0.133
[9]
  uncleaved DNA left (log2): -0.0902
[10]
  uncleaved DNA left (log2): 0.0316

## TCACCCC
[1]
  uncleaved DNA left (log2): -0.142
[2]
  uncleaved DNA left (log2): -0.118
[3]
  uncleaved DNA left (log2): 0.0398
[4]
  uncleaved DNA left (log2): -0.618
[5]
  uncleaved DNA left (log2): -0.158
[6]
  uncleaved DNA left (log2): -0.35
[7]
  uncleaved DNA left (log2): -0.976
[8]
  uncleaved DNA left (log2): -0.282
[9]
  uncleaved DNA left (log2): -0.21
[10]
  uncleaved DNA left (log2): -0.221

## AGACGTT
[1]
  uncleaved DNA left (log2): 0.107
[2]
  uncleaved DNA left (log2): 0.0248
[3]
  uncleaved DNA left (log2): 0.43
[4]
  uncleaved DNA left (log2): -0.51
[5]
  uncleaved DNA left (log2): 0.029
[6]
  uncleaved DNA left (log2): 1.48
[7]
  uncleaved DNA left (log2): -0.00608
[8]
  uncleaved DNA left (log2): 0.0568
[9]
  uncleaved DNA left (log2): -0.0911
[10]
  uncleaved DNA left (log2): 0.0512

## TCTTTCG
[1]
  uncleaved DNA left (log2): 0.0677
[2]
  uncleaved DNA left (log2): 0.00954
[3]
  uncleaved DNA left (log2): -0.818
[4]
  uncleaved DNA left (log2): -0.259
[5]
  uncleaved DNA left (log2): 0.0838
[6]
  uncleaved DNA left (log2): -1.15
[7]
  uncleaved DNA left (log2): 0.107
[8]
  uncleaved DNA left (log2): -0.0181
[9]
  uncleaved DNA left (log2): -0.069
[10]
  uncleaved DNA left (log2): -0.0943

## CCCGAAA
[1]
  uncleaved DNA left (log2): 0.032
[2]
  uncleaved DNA left (log2): 0.0701
[3]
  uncleaved DNA left (log2): 0.115
[4]
  uncleaved DNA left (log2): 0.136
[5]
  uncleaved DNA left (log2): -0.172
[6]
  uncleaved DNA left (log2): -0.426
[7]
  uncleaved DNA left (log2): -0.0529
[8]
  uncleaved DNA left (log2): -0.13
[9]
  uncleaved DNA left (log2): -0.0594
[10]
  uncleaved DNA left (log2): -0.018

From the supplement of paper PMC7826260
